# Laboratory results from article PMC12820563, “FoxP3 forms a head-to-head dimer in vivo and stabilizes its multimerization on adjacent microsatellites”.
# This is one part of the list.
# Target: T1, MBP-FoxP1dN (Mus musculus, UniProt P58462 326-579)
# T1 sequence: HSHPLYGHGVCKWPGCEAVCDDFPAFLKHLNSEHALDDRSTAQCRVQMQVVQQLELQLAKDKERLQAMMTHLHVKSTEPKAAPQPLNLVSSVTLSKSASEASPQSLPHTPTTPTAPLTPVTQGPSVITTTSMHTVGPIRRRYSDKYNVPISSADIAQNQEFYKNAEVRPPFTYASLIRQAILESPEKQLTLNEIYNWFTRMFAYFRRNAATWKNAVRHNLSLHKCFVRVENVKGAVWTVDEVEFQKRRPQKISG
# Assay: PD-seq (MBP pull-down with sequencing); 20 mM Tris-HCl pH 7.5, 100 mM NaCl, 1.5 mM MgCl2, 0.4 uM protein, 0.1 uM dsDNA library, 30 min, room temperature, amylose pull-down; high values mean tight binding
# Conditions: protein: recombinant; tags: His6-MBP; chain copies: 2; dsDNA, one strand shown
# Outline: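 The N-terminus-lacking fragment of mouse FoxP3 or FoxP1 carried a His6-MBP tag and was expressed in E. coli. At 0.4 µM it was incubated with 0.1 µM Klenow-filled degenerate double-stranded DNA library for 30 min at room temperature in Tris pH 7.5 buffer with NaCl and MgCl2, and complexes were caught on amylose resin, washed three times, released with proteinase K, PCR-barcoded and Illumina-sequenced. Binding is reads-per-million enrichment of pull-down over input with replicates pooled.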
row,Sequence,binding signal
1,GATGATTGTTCTCCCAGCTGATGAATTCACCTTATCGAGTAAACAAATTTTCCTAATCTTTCTGTTCAAGCGCCATCTAC,0.876 RPM ratio (pull-down/input)
2,GATGATTGTTCTCCCAGCTGATGAATTAGATATATCGAGTAAACAAATTTTCCTAATCTTTCTGTTCAAGCGCCATCTAC,1.03 RPM ratio (pull-down/input)
3,GATGATTGTTCTCCCAGCTGATGAATTGCGGCGATCGAGTAAACAAATTTTCCTAATCTTTCTGTTCAAGCGCCATCTAC,1.04 RPM ratio (pull-down/input)
4,GATGATTGTTCTCCCAGCTGATGAATTCAAAGGTTCGAGTAAACAAATTTTCCTAATCTTTCTGTTCAAGCGCCATCTAC,0.815 RPM ratio (pull-down/input)
5,GATGATTGTTCTCCCAGCTGATGAATTTAATCATTCGAGTAAACAAATTTTCCTAATCTTTCTGTTCAAGCGCCATCTAC,1.04 RPM ratio (pull-down/input)
6,GATGATTGTTCTCCCAGCTGATGAATTCCCCATCTCGAGTAAACAAATTTTCCTAATCTTTCTGTTCAAGCGCCATCTAC,0.782 RPM ratio (pull-down/input)
7,GATGATTGTTCTCCCAGCTGATGAATTCTATAGGTCGAGTAAACAAATTTTCCTAATCTTTCTGTTCAAGCGCCATCTAC,0.795 RPM ratio (pull-down/input)
8,GATGATTGTTCTCCCAGCTGATGAATTCTGCCACTCGAGTAAACAAATTTTCCTAATCTTTCTGTTCAAGCGCCATCTAC,0.947 RPM ratio (pull-down/input)
9,GATGATTGTTCTCCCAGCTGATGAATTATAGGAGTCGAGTAAACAAATTTTCCTAATCTTTCTGTTCAAGCGCCATCTAC,0.95 RPM ratio (pull-down/input)
10,GATGATTGTTCTCCCAGCTGATGAATTAGACGTCTCGAGTAAACAAATTTTCCTAATCTTTCTGTTCAAGCGCCATCTAC,0.823 RPM ratio (pull-down/input)
11,GATGATTGTTCTCCCAGCTGATGAATTGTCCGAGTCGAGTAAACAAATTTTCCTAATCTTTCTGTTCAAGCGCCATCTAC,0.906 RPM ratio (pull-down/input)
12,GATGATTGTTCTCCCAGCTGATGAATTCGCTGTATCGAGTAAACAAATTTTCCTAATCTTTCTGTTCAAGCGCCATCTAC,1.04 RPM ratio (pull-down/input)
13,GATGATTGTTCTCCCAGCTGATGAATTAAGGCTTTCGAGTAAACAAATTTTCCTAATCTTTCTGTTCAAGCGCCATCTAC,0.96 RPM ratio (pull-down/input)
14,GATGATTGTTCTCCCAGCTGATGAATTTACCTGGTCGAGTAAACAAATTTTCCTAATCTTTCTGTTCAAGCGCCATCTAC,1.12 RPM ratio (pull-down/input)
15,GATGATTGTTCTCCCAGCTGATGAATTCTCAACATCGAGTAAACAAATTTTCCTAATCTTTCTGTTCAAGCGCCATCTAC,1.05 RPM ratio (pull-down/input)
16,GATGATTGTTCTCCCAGCTGATGAATTCAGTGATTCGAGTAAACAAATTTTCCTAATCTTTCTGTTCAAGCGCCATCTAC,0.979 RPM ratio (pull-down/input)

row,Sequence,binding signal
1,GATGATTGTTCTCCCAGCTGATGAATTTATAAATTCGAGTAAACAAATTTTCCTAATCTTTCTGTTCAAGCGCCATCTAC,1.14 RPM ratio (pull-down/input)
2,GATGATTGTTCTCCCAGCTGATGAATTGAAACAATCGAGTAAACAAATTTTCCTAATCTTTCTGTTCAAGCGCCATCTAC,1.6 RPM ratio (pull-down/input)
3,GATGATTGTTCTCCCAGCTGATGAATTGGCCAACTCGAGTAAACAAATTTTCCTAATCTTTCTGTTCAAGCGCCATCTAC,0.833 RPM ratio (pull-down/input)
4,GATGATTGTTCTCCCAGCTGATGAATTTCCACGTTCGAGTAAACAAATTTTCCTAATCTTTCTGTTCAAGCGCCATCTAC,0.88 RPM ratio (pull-down/input)
5,GATGATTGTTCTCCCAGCTGATGAATTTGATCCATCGAGTAAACAAATTTTCCTAATCTTTCTGTTCAAGCGCCATCTAC,0.928 RPM ratio (pull-down/input)
6,GATGATTGTTCTCCCAGCTGATGAATTGGAACTGTCGAGTAAACAAATTTTCCTAATCTTTCTGTTCAAGCGCCATCTAC,0.803 RPM ratio (pull-down/input)
7,GATGATTGTTCTCCCAGCTGATGAATTCATATTCTCGAGTAAACAAATTTTCCTAATCTTTCTGTTCAAGCGCCATCTAC,0.83 RPM ratio (pull-down/input)
8,GATGATTGTTCTCCCAGCTGATGAATTACCGTCCTCGAGTAAACAAATTTTCCTAATCTTTCTGTTCAAGCGCCATCTAC,0.877 RPM ratio (pull-down/input)
9,GATGATTGTTCTCCCAGCTGATGAATTGTGGCACTCGAGTAAACAAATTTTCCTAATCTTTCTGTTCAAGCGCCATCTAC,1.22 RPM ratio (pull-down/input)
10,GATGATTGTTCTCCCAGCTGATGAATTACCTGTATCGAGTAAACAAATTTTCCTAATCTTTCTGTTCAAGCGCCATCTAC,1.16 RPM ratio (pull-down/input)
11,GATGATTGTTCTCCCAGCTGATGAATTCCAATTATCGAGTAAACAAATTTTCCTAATCTTTCTGTTCAAGCGCCATCTAC,1.07 RPM ratio (pull-down/input)
12,GATGATTGTTCTCCCAGCTGATGAATTAGGACTCTCGAGTAAACAAATTTTCCTAATCTTTCTGTTCAAGCGCCATCTAC,0.792 RPM ratio (pull-down/input)
13,GATGATTGTTCTCCCAGCTGATGAATTTTTTGTTTCGAGTAAACAAATTTTCCTAATCTTTCTGTTCAAGCGCCATCTAC,1.13 RPM ratio (pull-down/input)
14,GATGATTGTTCTCCCAGCTGATGAATTACACTTGTCGAGTAAACAAATTTTCCTAATCTTTCTGTTCAAGCGCCATCTAC,1.17 RPM ratio (pull-down/input)
15,GATGATTGTTCTCCCAGCTGATGAATTAGCCTAGTCGAGTAAACAAATTTTCCTAATCTTTCTGTTCAAGCGCCATCTAC,0.785 RPM ratio (pull-down/input)
16,GATGATTGTTCTCCCAGCTGATGAATTGACGGTATCGAGTAAACAAATTTTCCTAATCTTTCTGTTCAAGCGCCATCTAC,1.06 RPM ratio (pull-down/input)
